# ChEMBL document CHEMBL1961873, “Compounds: GSK PKIS; Assays: Nanosyn kinase panel” (2012)
# For some of these results: Shown are results outside the selection of strong results, which stands elsewhere. The list shows a part of the results, in another mix than the full data.
# Columns and labels:
# [1] = target: T1, Serine/threonine-protein kinase Nek9 (Homo sapiens) (UniProt Q8TD19); settings: at 1 µM;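 further: each value is a mean percent inhibition of NEK9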
# T1 sequence (whole entry): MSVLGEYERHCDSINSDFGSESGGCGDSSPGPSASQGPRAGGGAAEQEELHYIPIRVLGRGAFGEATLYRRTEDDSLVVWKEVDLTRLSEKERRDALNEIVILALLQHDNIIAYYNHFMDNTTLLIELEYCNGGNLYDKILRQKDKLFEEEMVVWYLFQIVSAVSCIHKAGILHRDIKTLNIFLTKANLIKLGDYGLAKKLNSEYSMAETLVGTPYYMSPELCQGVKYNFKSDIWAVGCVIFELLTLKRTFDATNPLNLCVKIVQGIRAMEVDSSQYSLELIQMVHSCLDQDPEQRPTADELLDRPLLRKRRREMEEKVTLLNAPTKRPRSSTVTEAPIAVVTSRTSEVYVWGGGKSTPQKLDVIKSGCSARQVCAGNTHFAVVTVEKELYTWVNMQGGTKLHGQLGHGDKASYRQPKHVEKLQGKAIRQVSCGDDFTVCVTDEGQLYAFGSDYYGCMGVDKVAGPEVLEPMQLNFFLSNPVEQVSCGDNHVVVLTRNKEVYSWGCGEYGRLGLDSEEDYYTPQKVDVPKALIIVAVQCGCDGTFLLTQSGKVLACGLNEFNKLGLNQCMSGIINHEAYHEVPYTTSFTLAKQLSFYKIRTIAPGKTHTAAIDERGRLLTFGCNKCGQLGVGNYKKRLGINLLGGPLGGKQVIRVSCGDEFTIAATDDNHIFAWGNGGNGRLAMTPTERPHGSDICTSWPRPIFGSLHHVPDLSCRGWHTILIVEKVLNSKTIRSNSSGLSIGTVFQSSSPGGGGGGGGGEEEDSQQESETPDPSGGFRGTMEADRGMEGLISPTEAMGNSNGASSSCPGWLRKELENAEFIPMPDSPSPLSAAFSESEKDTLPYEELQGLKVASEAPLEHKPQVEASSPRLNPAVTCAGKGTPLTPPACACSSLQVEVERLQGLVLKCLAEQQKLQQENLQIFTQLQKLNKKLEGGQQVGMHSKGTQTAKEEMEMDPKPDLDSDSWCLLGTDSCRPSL
# [2] = target: Serine/threonine-protein kinase PLK1 (Homo sapiens) (UniProt P53350); settings: at 0.1 µM
# Sequence of UniProt P53350 (P53350 whole entry): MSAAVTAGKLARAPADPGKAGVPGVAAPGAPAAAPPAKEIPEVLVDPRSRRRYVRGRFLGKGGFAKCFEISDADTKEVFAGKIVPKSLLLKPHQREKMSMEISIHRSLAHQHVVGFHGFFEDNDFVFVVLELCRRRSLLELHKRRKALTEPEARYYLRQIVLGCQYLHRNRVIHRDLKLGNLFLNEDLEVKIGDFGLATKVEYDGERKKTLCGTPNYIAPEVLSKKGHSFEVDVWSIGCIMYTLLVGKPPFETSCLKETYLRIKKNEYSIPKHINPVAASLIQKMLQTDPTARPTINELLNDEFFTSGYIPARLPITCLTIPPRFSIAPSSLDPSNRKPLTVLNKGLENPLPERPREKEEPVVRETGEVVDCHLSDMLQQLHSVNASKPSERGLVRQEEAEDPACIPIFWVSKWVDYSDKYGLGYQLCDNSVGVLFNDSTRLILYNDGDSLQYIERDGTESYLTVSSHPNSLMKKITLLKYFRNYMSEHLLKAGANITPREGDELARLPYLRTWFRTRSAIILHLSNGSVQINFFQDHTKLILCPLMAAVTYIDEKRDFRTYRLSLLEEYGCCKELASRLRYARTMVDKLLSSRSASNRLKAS
# [3] = target: Serine/threonine-protein kinase PLK1 (Homo sapiens) (UniProt P53350); settings: at 1 µM
# [4] = target: T2, Dual specificity protein kinase TTK (Homo sapiens) (UniProt P33981); settings: at 0.1 µM
# T2 sequence (whole entry): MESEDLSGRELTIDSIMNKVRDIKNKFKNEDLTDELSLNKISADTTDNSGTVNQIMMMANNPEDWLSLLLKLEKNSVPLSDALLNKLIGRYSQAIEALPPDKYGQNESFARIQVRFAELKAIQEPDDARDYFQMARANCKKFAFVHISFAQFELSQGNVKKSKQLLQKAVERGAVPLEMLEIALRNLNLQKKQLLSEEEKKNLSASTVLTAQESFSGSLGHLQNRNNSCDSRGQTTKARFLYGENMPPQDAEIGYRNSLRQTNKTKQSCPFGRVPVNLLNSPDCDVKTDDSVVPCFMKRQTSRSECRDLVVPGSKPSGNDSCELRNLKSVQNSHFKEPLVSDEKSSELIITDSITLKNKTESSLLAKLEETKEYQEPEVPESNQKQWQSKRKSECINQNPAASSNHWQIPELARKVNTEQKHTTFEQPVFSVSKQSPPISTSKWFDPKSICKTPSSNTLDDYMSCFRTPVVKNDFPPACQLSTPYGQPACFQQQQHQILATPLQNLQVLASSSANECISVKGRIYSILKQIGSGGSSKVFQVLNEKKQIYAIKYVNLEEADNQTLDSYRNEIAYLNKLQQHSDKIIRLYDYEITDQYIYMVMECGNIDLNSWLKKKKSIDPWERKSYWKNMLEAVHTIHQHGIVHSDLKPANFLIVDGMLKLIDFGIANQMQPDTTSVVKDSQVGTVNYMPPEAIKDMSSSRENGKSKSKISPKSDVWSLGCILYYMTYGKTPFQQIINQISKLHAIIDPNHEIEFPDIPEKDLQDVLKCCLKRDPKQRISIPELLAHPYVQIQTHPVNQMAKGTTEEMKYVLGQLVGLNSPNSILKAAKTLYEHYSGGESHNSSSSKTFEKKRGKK
# [5] = test system: T3, Receptor-type tyrosine-protein kinase FLT3 (Homo sapiens), P36888 [D835Y]; settings: at 1 µM
# T3 sequence (whole entry): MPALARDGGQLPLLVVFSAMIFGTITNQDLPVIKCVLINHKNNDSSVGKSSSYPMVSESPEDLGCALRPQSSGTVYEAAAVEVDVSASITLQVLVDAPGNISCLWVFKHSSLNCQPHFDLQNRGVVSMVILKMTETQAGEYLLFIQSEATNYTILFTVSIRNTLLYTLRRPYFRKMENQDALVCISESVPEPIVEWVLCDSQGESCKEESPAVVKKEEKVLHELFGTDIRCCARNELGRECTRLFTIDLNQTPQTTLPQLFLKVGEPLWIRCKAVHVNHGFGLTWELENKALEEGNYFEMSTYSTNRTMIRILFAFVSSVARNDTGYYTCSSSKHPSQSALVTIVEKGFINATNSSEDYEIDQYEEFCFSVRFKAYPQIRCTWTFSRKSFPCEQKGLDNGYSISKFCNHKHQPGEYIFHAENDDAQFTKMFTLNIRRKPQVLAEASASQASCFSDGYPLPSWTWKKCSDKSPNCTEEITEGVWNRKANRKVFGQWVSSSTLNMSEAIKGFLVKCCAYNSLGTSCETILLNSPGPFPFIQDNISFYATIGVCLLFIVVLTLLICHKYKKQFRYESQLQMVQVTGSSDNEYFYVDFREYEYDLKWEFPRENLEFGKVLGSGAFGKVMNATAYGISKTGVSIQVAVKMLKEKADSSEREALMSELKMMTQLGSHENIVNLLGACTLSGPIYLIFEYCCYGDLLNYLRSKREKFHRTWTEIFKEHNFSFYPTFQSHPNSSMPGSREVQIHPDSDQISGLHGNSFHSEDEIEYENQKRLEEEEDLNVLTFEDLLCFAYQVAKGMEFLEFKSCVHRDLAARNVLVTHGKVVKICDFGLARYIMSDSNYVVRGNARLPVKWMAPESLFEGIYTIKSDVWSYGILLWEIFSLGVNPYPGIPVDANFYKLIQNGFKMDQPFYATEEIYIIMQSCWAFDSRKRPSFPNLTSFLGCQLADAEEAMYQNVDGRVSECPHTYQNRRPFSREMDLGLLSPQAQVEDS
# [6] = target: Vascular endothelial growth factor receptor 3 (Homo sapiens) (UniProt P35916); settings: at 0.1 µM
# Sequence of UniProt P35916 (P35916 whole entry): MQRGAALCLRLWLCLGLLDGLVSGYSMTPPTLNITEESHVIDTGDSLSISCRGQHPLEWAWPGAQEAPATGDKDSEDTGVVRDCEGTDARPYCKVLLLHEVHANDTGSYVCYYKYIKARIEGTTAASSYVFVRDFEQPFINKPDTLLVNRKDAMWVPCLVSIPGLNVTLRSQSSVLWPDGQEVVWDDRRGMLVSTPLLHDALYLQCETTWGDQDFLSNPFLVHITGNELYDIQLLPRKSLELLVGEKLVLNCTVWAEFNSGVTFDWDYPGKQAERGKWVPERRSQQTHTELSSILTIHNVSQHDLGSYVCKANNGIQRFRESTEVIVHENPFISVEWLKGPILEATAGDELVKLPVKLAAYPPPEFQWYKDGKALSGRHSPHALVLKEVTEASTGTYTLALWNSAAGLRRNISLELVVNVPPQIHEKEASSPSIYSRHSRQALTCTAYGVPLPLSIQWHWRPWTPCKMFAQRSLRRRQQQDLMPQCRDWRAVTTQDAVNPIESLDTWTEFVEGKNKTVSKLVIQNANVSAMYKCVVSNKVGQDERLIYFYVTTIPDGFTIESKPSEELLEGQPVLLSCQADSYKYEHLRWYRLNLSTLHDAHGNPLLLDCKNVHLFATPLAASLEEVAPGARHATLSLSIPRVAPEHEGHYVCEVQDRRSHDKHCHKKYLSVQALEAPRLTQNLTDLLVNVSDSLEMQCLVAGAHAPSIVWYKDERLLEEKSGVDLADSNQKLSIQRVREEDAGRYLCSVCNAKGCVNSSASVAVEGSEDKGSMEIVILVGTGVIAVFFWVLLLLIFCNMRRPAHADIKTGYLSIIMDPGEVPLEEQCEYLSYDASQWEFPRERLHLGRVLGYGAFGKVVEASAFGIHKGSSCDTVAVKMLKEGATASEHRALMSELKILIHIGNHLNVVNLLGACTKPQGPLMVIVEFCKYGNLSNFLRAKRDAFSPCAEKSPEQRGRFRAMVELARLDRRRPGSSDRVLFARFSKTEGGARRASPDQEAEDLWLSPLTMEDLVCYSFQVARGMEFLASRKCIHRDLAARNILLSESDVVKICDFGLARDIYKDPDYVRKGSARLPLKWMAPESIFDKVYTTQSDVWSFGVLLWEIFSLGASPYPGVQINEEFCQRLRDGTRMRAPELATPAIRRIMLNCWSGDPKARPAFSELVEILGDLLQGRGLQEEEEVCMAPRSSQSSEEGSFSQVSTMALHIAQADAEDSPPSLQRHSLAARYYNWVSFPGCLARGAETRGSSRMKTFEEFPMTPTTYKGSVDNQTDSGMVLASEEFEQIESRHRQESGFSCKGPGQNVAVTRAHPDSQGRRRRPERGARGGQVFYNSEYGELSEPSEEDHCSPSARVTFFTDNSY
# [7] = target: Vascular endothelial growth factor receptor 3 (Homo sapiens) (UniProt P35916); settings: at 1 µM
# [8] = target: Macrophage colony-stimulating factor 1 receptor (Homo sapiens) (UniProt P07333); settings: at 0.1 µM
# Sequence of UniProt P07333 (P07333 whole entry): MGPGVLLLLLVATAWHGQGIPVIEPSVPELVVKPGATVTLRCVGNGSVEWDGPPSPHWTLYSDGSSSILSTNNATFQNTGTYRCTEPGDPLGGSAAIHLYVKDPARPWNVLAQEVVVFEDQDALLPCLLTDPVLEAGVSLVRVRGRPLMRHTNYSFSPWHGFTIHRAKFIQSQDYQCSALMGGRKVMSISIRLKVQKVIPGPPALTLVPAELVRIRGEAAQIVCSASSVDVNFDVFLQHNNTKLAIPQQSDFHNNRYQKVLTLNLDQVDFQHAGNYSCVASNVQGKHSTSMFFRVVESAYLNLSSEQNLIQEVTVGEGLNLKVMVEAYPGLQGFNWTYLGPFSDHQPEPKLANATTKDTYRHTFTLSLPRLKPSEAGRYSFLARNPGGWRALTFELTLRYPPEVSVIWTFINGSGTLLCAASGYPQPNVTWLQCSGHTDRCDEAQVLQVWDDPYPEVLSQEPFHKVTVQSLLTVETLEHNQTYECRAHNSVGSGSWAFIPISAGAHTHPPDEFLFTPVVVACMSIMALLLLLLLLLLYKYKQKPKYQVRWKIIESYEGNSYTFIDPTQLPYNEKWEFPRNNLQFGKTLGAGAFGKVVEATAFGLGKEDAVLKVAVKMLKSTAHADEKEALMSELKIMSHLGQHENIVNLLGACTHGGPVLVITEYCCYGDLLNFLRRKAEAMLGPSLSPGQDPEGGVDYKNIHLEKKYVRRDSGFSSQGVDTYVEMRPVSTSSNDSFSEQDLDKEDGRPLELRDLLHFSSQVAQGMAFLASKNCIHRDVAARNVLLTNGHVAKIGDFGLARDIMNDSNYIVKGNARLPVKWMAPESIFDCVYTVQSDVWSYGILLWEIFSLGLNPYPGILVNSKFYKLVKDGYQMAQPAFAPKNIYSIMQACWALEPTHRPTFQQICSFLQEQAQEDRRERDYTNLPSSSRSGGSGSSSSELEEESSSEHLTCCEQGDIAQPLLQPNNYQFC
# [9] = target: Macrophage colony-stimulating factor 1 receptor (Homo sapiens) (UniProt P07333); settings: at 1 µM
# [10] = target: Tyrosine-protein kinase Fyn (Homo sapiens) (UniProt P06241); settings: at 0.1 µM
# Sequence of UniProt P06241 (P06241 whole entry, looked up): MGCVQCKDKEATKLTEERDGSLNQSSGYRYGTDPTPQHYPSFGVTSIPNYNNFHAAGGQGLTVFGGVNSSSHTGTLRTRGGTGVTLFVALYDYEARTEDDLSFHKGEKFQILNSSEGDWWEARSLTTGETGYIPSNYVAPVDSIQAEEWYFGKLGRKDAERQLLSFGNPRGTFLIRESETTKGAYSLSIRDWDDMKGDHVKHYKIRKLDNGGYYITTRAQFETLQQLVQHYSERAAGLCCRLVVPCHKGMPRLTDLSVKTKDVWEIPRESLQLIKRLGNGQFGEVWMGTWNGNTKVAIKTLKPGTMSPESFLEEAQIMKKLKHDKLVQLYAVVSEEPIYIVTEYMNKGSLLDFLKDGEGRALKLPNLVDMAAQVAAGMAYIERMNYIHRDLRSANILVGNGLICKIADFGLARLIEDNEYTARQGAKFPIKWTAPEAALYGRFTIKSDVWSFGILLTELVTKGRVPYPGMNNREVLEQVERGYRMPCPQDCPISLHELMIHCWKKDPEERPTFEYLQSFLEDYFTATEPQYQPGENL
structure (smiles),measurement,setting,value
COc1ccccc1C1=C(Nc2ccccc2)C(=O)NC1=O,inhibition,[1],9.03%
same,inhibition,[2],3.34%
same,inhibition,[3],1.42%
same,inhibition,[4],4.06%
same,inhibition,[5],3.02%
same,inhibition,[6],1.54%
same,inhibition,[7],4.56%
same,inhibition,[8],0.47%
same,inhibition,[9],4.75%
same,inhibition,[10],2.9%
